{"source": "PubChem BioAssay AID686978", "about": "(National Center for Advancing Translational Sciences (NCATS), 2013)", "note": "Several values for one entry are separate records, joined by “and”; a condition that tells them apart may be missing. Identical values can stand only once. About 64,000 (15%) of roughly 420,000 compounds were called active. This list was built around the results that the source calls inconclusive (neither active nor inactive); the mix of calls is not that of the screen. Calls come from the whole dose curve; as a rule, active = well fitted inhibition curve with a large enough effect; inconclusive = small, poorly fitted or top-dose-only effect; inactive = flat fitted curve, though single readings scatter. Potencies of inconclusive entries are doubtful fits and often do not repeat. % is set by controls: 0 for no effect and ±100 for the full control effect; potency is the fitted concentration of half-maximal effect; tags give direction and shape of the fitted curve.", "data": [{"test": "qHTS for Inhibitors of human tyrosyl-DNA phosphodiesterase 1 (TDP1): qHTS in cells in absence of CPT; note: nearly all actives have a fitted effect of over 55% in size", "details": "DT40 Tdp1-/- hTDP1 cells, no CPT, ATP luminescence, 48 h; activity change, negative = growth inhibition: at 46.2 µM (top of the series) unless noted", "how_it_was_run": "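Stably hTDP1-transfected Tdp1-null chicken DT40 cells were treated with library compounds minus camptothecin and grown for at least 48 hr at 37 °C, after which cellular ATP was quantified by luminescence.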", "values": [{"smiles": "CC1(C)C(=O)Nc2ccccc2N1C(=O)COC(=O)c1ccc(NC(N)=O)cc1", "Potency": "inconclusive: 13 µM [inhibitor, partial curve]"}, {"smiles": "CCc1nnc(NC(=O)CN2CCN(Cc3cccc(F)c3)CC2)s1", "activity change, negative = growth inhibition": "inactive: 10.2%"}, {"smiles": "COc1ccc(NC(=O)N(C)C[C@H]2Oc3ccc(NS(=O)(=O)c4cccs4)cc3C(=O)N([C@@H](C)CO)C[C@@H]2C)cc1", "activity change, negative = growth inhibition": "inactive: -18.5%"}, {"smiles": "Cc1csc(NC(=O)c2nn(C)c(C)c2[N+](=O)[O-])n1", "activity change, negative = growth inhibition": "inactive: 1.95%"}, {"smiles": "Cc1ccc2c(n1)sc1c(=O)n(-c3cccc(C(F)(F)F)c3)nnc12", "Potency": "inconclusive: 5.8 µM [inhibitor, partial curve]"}, {"smiles": "CC(=O)O[C@@H]1[C@@]2(C)O[C@H]2CC[C@]23O[C@H]2[C@H](OC3=O)C2=C(C)C(=O)O[C@@]21O", "Potency": "inconclusive: 29.1 µM [inhibitor, partial curve, poor fit]"}, {"smiles": "C[C@H](NC(=O)c1ccccc1Cl)C(=O)NCCc1ccc(S(N)(=O)=O)cc1", "activity change, negative = growth inhibition": "inactive: -8.2%"}, {"smiles": "O=c1oc2cc(O)ccc2s1", "Potency": "inconclusive: 10.6 µM [inhibitor, partial curve] and inconclusive: 9.2 µM [inhibitor, partial curve]"}, {"smiles": "CC(=O)c1ccc(N2CCN(C(=O)Nc3ccc(Cl)cc3)CC2)cc1", "Potency": "active: 10.3 µM"}, {"smiles": "COc1ccc(C(=O)NCc2nnc(SCC(=O)N3CCc4ccccc43)n2CCc2ccccc2)cc1", "Potency": "inconclusive: 29.1 µM [inhibitor, single point]"}, {"smiles": "Cc1noc(C)c1S(=O)(=O)N(CC(=O)N1CCCC1)c1ccc(C(C)C)cc1", "Potency": "inconclusive: 32.6 µM [inhibitor, single point]"}, {"smiles": "CSc1ccccc1NC(=O)C1(C)CCN1C(=O)Cc1ccc(Cl)cc1Cl", "note": "(stereo not drawn)", "Potency": "inconclusive: 18.4 µM [inhibitor, single point]"}, {"smiles": "COCCn1c(N2CCN(c3ccccc3)CC2)nc2c1c(=O)n(C)c(=O)n2C", "Potency": "inconclusive: 25.9 µM [inhibitor, single point]"}, {"smiles": "c1ccc(Oc2cc(-c3ccccc3)ncn2)cc1", "activity change, negative = growth inhibition": "inactive: -27.4%"}, {"smiles": "COc1ccc(-c2nc3scc(CCNS(=O)(=O)c4cc(F)ccc4OC)n3n2)cc1OC", "Potency": "active: 20.6 µM"}, {"smiles": "C#CCn1c(S(=O)(=O)Cc2ccc(C)cc2)nc(-c2ccccc2)c1-c1ccccc1", "Potency": "inconclusive: 25.1 µM [inhibitor, single point] and inconclusive: 20.6 µM [inhibitor, single point]"}, {"smiles": "Cc1ccc(-n2nc3c(N4CCC(C(=O)NCCc5cccs5)CC4)nnc(C)c3c2C)cc1", "Potency": "active: 29.1 µM"}, {"smiles": "CSc1nc(N2CCOCC2)c2c(c1C#N)CCCCC2", "Potency": "inconclusive: 23.1 µM [inhibitor, single point]"}, {"smiles": "CCOc1ccc(NC(=O)CN(C)C(=O)c2cn3ccccc3n2)cc1OCC", "activity change, negative = growth inhibition": "inactive: -1.66%"}, {"smiles": "COC(=O)Cn1c(=O)n(CCc2ccccc2)c(=O)c2c3c(sc21)CCCC3", "activity change, negative = growth inhibition": "inactive: -23.6%"}, {"smiles": "N#Cc1nc(-c2cccs2)oc1NCc1ccc2c(c1)OCO2", "Potency": "inconclusive: 20.6 µM [inhibitor, single point]"}, {"smiles": "CN(C(=O)Nc1cccc([N+](=O)[O-])c1)c1ccccc1", "activity change, negative = growth inhibition": "inconclusive: -31.8% [inhibitor]"}, {"smiles": "CCN(C1CCCCC1)S(=O)(=O)CCNC(=O)c1ccccc1", "activity change, negative = growth inhibition": "inconclusive: -34% [inhibitor]"}, {"smiles": "CCOc1cccc(-c2nnc3n2N=C(c2cc(OC)ccc2OC)CS3)c1", "Potency": "active: 8.2 µM"}, {"smiles": "Cc1ccc(NC(=O)CN2C(=O)NC3(CCCCC3C)C2=O)cc1S(=O)(=O)N1CCOCC1", "note": "(stereo not drawn)", "Potency": "active: 23.1 µM"}, {"smiles": "Cc1ccc(CCNC(=O)CCCn2c(=O)c3ccccc3n(CC(=O)Nc3cc(Cl)ccc3C)c2=O)cc1", "Potency": "inconclusive: 29.1 µM [inhibitor, single point]"}, {"smiles": "CN(CCCNC(=O)c1ccc(/C=N/O)nc1)CCCN(C)Cc1ccccc1", "Potency": "active: 23.1 µM"}, {"smiles": "CN1CCN(S(=O)(=O)c2ccc(NC(=O)c3csc4ccccc34)cc2)CC1", "Potency": "inconclusive: 25.1 µM [inhibitor, single point]"}, {"smiles": "CCCn1c(SCC(=O)N2c3ccccc3CCc3ccccc32)nc2c1c(=O)n(C)c(=O)n2C", "Potency": "inconclusive: 14.6 µM [inhibitor, partial curve]"}, {"smiles": "Cc1ccc(CN2CCSc3ccc(C(=O)Nc4cc(C)cc(C)c4)cc32)cc1", "Potency": "inconclusive: 29.1 µM [inhibitor, single point]"}, {"smiles": "Cc1ccccc1-c1nc2sc3c(c2c(=O)n1N)CCCC3", "activity change, negative = growth inhibition": "inactive: -28%"}, {"smiles": "COc1ccc(NC(=S)NC2CC3CCC2C3)c(OC)c1", "note": "(stereo not drawn)", "activity change, negative = growth inhibition": "inactive: -21.7%"}, {"smiles": "Cc1ccc(Cl)c(NC(=O)COC(=O)c2nn(-c3ccccc3)cc2O)c1Cl", "Potency": "inconclusive: 20.6 µM [inhibitor, single point]"}, {"smiles": "Cc1cc(F)ccc1C(O)c1ncc(-c2ccc(Cl)cc2)[nH]1", "note": "(stereo not drawn)", "Potency": "inconclusive: 29.1 µM [inhibitor, single point]"}, {"smiles": "Cc1oc(C(=O)O)cc1COc1cccc2cccnc12", "Potency": "inconclusive: 25.9 µM [inhibitor, single point]"}, {"smiles": "Cc1ccc(N=Nc2ccc3ccccc3c2O)cc1", "Potency": "inconclusive: 11.6 µM [inhibitor, partial curve, poor fit]"}, {"smiles": "Fc1ccc(CNC(=S)NC2CCCCC2)cc1", "Potency": "inconclusive: 25.9 µM [inhibitor, single point]"}, {"smiles": "CC(C)CN(C(=O)c1ccc(=O)n(C)n1)c1nc2ccccc2s1", "Potency": "inconclusive: 29.1 µM [inhibitor, single point]"}, {"smiles": "COc1ccc(CN(C(=O)c2snc(C(N)=O)c2N)C(C(=O)NC2CCCC2)c2ccc(OC)cc2)cc1", "note": "(stereo not drawn)", "Potency": "inconclusive: 14.6 µM [inhibitor, partial curve, poor fit]"}, {"smiles": "COc1ccc2sc(-c3ccc(S(C)(=O)=O)cc3)c(-c3ccc4c(c3)OCCO4)c2c1", "Potency": "inconclusive: 18.4 µM [inhibitor, single point]"}, {"smiles": "O=C(NCCCN1CCOCC1)c1ccc(Cl)cc1Cl", "activity change, negative = growth inhibition": "inactive: 12.4%"}, {"smiles": "COc1cccc(C(C)(O)c2nc(-c3cnc4ccccc4c3)cs2)c1", "note": "(stereo not drawn)", "Potency": "active: 18.4 µM"}, {"smiles": "O=C(c1ccc(Cn2c(=O)[nH]c3ccccc3c2=O)cc1)N1CCN(c2ccc(F)cc2)CC1", "Potency": "inconclusive: 23.1 µM [inhibitor, partial curve]"}]}]}
